# In PubChem BioAssay AID651820 (National Center for Advancing Translational Sciences (NCATS), 2012):
# Screen size: about 340,000 compounds; about 12,000 (3.5%) were called active. The inconclusive results got no clear call from the source; some entries with a clear call stand among them for comparison. Calls follow the shape of the dose curve; as a rule, active = well fitted inhibition curve with a large enough effect; inconclusive = small, poorly fitted or top-dose-only effect, or another doubt; inactive = no such curve, though single readings can be large or run the other way. Potencies of inconclusive entries are left out as doubtful fits.
# Experiment: qHTS Assay for Inhibitors of Hepatitis C Virus (HCV)
# Details: Huh7.5.1 HCVcc-Cre (HCVcc is cell-culture hepatitis C virus) infection, luciferase reporter, 44 h; activity change, negative = inhibition: at 41.8 µM (top of the series) unless noted
# Summary of the method: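 Reporter virus HCVcc-Cre (~0.5 moi) infects cells exposed to compound; seeding density 1,000 cells/well with 4 h settling beforehand. Luminescence, 15 sec read, taken 44 h post-infection following a 15 min RT substrate incubation.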
# % is scaled to controls: 0 for no effect and ±100 for the full control effect; potency is read from the fitted curve at half-maximal effect; tags tell the direction and shape of the fitted curve.
SMILES,"activity change, negative = inhibition",Potency
Cc1ccc(OC(=O)C23CC4CC(CC(C4)C2)C3)c(C)n1,inactive: 3.3%,
Cc1ccsc1C(=O)OCC(=O)c1cc(C)n(CC2CCCO2)c1C (stereo not given),,"inconclusive [inhibitor, partial curve]"
Cc1cc(C(=O)Nc2ccc(N3CCCC3)c(Cl)c2)ccc1[N+](=O)[O-],,"inconclusive [inhibitor, full curve]"
Cc1oc(-c2ccccc2)nc1CS(=O)CC(=O)NC1CCCCCC1 (stereo not given),inactive: 5.83%,
O=C1c2ccccc2C(Nc2ccc3c(c2)OCCO3)N1Cc1ccco1 (stereo not given),,"inconclusive [inhibitor, single point]"
Clc1ccc2c(c1)C(c1ccccc1Cl)=NCc1nncn1-2,,"inconclusive [inhibitor, single point]"
O=C(NCCN1CCCC1)c1ccccc1Cl,inactive: 4.64%,
O=C(CSc1cccc2cccnc12)Nc1ccc(S(=O)(=O)N2CCOCC2)cc1,inactive: -28%,
CC1CCCC(NC(=O)C2CCN(C(=O)Nc3ccccc3)CC2)C1C (stereo not given),inactive: 8.65%,
CCOc1ccc(OCCC(=O)N(CC)CC(=O)NCc2ccc(Cl)cc2)cc1,,"inconclusive [inhibitor, partial curve]"
COc1cccc(NC(=O)c2ccc(CN3CCOCC3)cc2)c1,,"inconclusive [inhibitor, single point]"
COC(=O)CNC(=O)C1CCN(S(=O)(=O)c2cccc3nsnc23)CC1,,"inconclusive [inhibitor, single point]"
NS(=O)(=O)c1ccc(-c2c(-c3ccccc3)sc3ccccc23)cc1,,"inconclusive [inhibitor, single point]"
Cc1c(NS(=O)(=O)c2ccc(N3CCCCC3)c([N+](=O)[O-])c2)c(=O)n(-c2ccccc2)n1C,inactive: 1.03%,
NNC(=O)c1ccc(N2CCCCCC2)c([N+](=O)[O-])c1,,"inconclusive [inhibitor, single point]"
CC(C)(C)OC(=O)C[C@H]1C/C=C\C[C@H](CC(=O)N(CCO)Cc2ccccc2)C(=O)N[C@@H](Cc2ccccc2)COC1=O,inactive: -8.3%,
N#Cc1ccc(CSc2nnc(-c3ccccn3)n2-c2ccccc2)cc1,inactive: -1.01%,
Cc1c(NS(=O)(=O)c2ccc(Cl)c(C(=O)OCC(=O)NCc3ccco3)c2)c(=O)n(-c2ccccc2)n1C,inactive: -2.2%,
CCN1C(=O)[C@H]2[C@H]3CN=C(SC)N3[C@@](Cc3ccccc3)(C(=O)OC)[C@H]2C1=O,,active: 0.562 µM
Cc1cccc(NC(=O)c2cc3n(n2)C(C(F)(F)F)CC(c2ccc4c(c2)OCO4)N3)c1 (stereo not given),,"inconclusive [inhibitor, partial curve]"
COc1cc(S(=O)(=O)NCc2ccncc2)c(OC)cc1Br,,"inconclusive [inhibitor, single point]"
COc1ccc2cc(CN(Cc3ccco3)Cc3nnnn3C3CCCCC3)c(=O)[nH]c2c1,,"inconclusive [inhibitor, single point]"
CCCOc1ccc(N2C(=O)CC(SC(=N)N3N=C(c4ccccc4)CC3c3ccccc3)C2=O)cc1 (stereo not given),,"inconclusive [inhibitor, single point]"
CCc1ccc(NC(=O)C2CCCN2S(=O)(=O)c2ccc3c(c2)n(C)c(=O)c(=O)n3C)cc1 (stereo not given),inactive: 17.5%,

SMILES,"activity change, negative = inhibition",Potency
CCN1CCc2c(sc(NC(=O)Cc3ccccc3)c2C(=O)OC)C1,,"inconclusive [inhibitor, partial curve]"
CC(NC(=O)c1ccc(C(=O)c2ccccc2)cc1)c1ccc(S(N)(=O)=O)cc1 (stereo not given),,"inconclusive [inhibitor, partial curve]"
Cc1cc(Cl)ccc1OC(C)C(=O)Nc1ccc(S(=O)(=O)N2CCOCC2)cc1 (stereo not given),,active: 11.2 µM
N#Cc1nc(COc2ccc(Br)cc2)oc1N1CCCC1,,"inconclusive [inhibitor, single point]"
COc1cc(CN2CCN(C(=O)c3cccc4ccccc34)CC2)cc(OC)c1OC,inactive: 2.91%,
Nc1sc2c(c1C(=O)NC1CCS(=O)(=O)C1)CCCC2 (stereo not given),,"inconclusive [inhibitor, single point]"
COc1ccc([N+](=O)[O-])c(OC)c1C(=O)NC(=O)Nc1nc(C)cc(C)n1,inactive: -12.8%,
CCOC(=O)/C(C#N)=C/c1ccc(-c2ccsc2C(=O)OC)o1,,"inconclusive [inhibitor, single point]"
O=C(CCCNC(=O)c1ccc(Cl)cc1)Nc1cccc(S(=O)(=O)N2CCCCC2)c1,,"inconclusive [inhibitor, single point]"
Cc1ccc(S(=O)(=O)N2CCOCC2)cc1C(=O)N1CCOCC1,,"inconclusive [inhibitor, single point]"
C[C@@H](C(=O)Nc1ccc2ccccc2c1)[C@H]1C[C@]1(C)[C@H](NC(=O)c1cnccn1)c1ccccc1,,"inconclusive [inhibitor, partial curve]"
Cc1cccc(OCC(=O)Nc2cc(Cl)ccc2-n2cncn2)c1C,,"inconclusive [inhibitor, partial curve]"
c1ccc(-c2nc(NCc3cccs3)c3ccccc3n2)cc1,,"inconclusive [inhibitor, partial curve]"
CCOc1cccc2sc(N(CCCN(C)C)C(=O)c3ccc(S(=O)(=O)N(C)c4ccccc4)cc3)nc12,,"inconclusive [inhibitor, single point]"
Cc1c(NC(=O)c2c(N)n(-c3ccccc3)c3nc4ccccc4nc23)c(=O)n(-c2ccccc2)n1C,inactive: 14.7%,
O=C(c1ccco1)N(Cc1cc2ccccc2[nH]c1=O)C1CCCCC1,,"inconclusive [inhibitor, single point]"
O=C(Nc1ccccc1C(=O)NCc1ccccc1)c1ccccc1Br,,"inconclusive [inhibitor, single point]"
CCOC(=O)N1CCN(c2cc(NCCC(=O)O)c3c4c(onc24)-c2ccccc2C3=O)CC1,,"inconclusive [inhibitor, single point]"
O=C(c1cccc(F)c1)n1nnc2ccccc21,inactive: 9.36%,
CC1N(C(=O)N(C)C)CCN1S(=O)(=O)c1ccccc1 (stereo not given),inactive: 1.56%,
Cc1ccc(NC(=O)C(=Cc2ccc(C(=O)O)cc2)C(=O)Nc2ccc(C)cc2C)c(C)c1,,"inconclusive [inhibitor, single point]"
O=C(NC12CC3CC(CC(C3)C1)C2)c1ccc(Br)o1,inactive: -14.8%,
COC(=O)c1ccc2c(c1)C(=O)/C(=C/c1ccc(O)cc1)O2,,"inconclusive [inhibitor, single point]"
COc1ccccc1-c1ocnc1C(=O)N1CCN(S(=O)(=O)c2ccc(NC(C)=O)cc2)CC1,inactive: -2.27%,

SMILES,"activity change, negative = inhibition",Potency
Cc1ccc(C)c(NC(=O)CSc2nc(N)c(NC(=O)c3cccs3)c(=O)[nH]2)c1,inactive: 23.8%,
COc1ccccc1NC(=O)Nc1nc(CC(=O)NCc2c(F)cccc2F)cs1,,"inconclusive [inhibitor, partial curve]"
Cc1ccc(C)c(C(C)NC(=S)NC2CCCCC2)c1 (stereo not given),,"inconclusive [inhibitor, single point]"
C=CCC1(CC=C)CCCN1C(=O)c1cc(COc2ccc(-n3cncn3)cc2)on1,,active: 5.01 µM
COC(=O)c1ccc(N2CCOCC2)c(NC(=O)c2ccc(Br)o2)c1,,"inconclusive [inhibitor, single point]"
O=C(O)CCc1[nH]c2ccccc2c1Sc1ccccc1,inactive: 28.2%,
O=C(NCc1cccs1)c1cc2c(s1)-c1ccccc1OC2,,"inconclusive [inhibitor, partial curve]"
COc1ccc(OC)c(/C=C/C(=O)Oc2ccc(C(C)=O)cc2)c1,inactive: 10.7%,
O=C(N/N=C/c1cccc(Oc2ccccc2)c1)c1cccc(Br)c1,,"inconclusive [inhibitor, single point]"
CCn1c(C)nc2cc(C(=O)N/N=C/c3ccc(N4CCOCC4)cc3)ccc21,inactive: -25.4%,
CC(C)NC(=S)N/N=C/c1cc(Br)ccc1O,,"inconclusive [inhibitor, single point]"
Cc1ccc(-c2c(C(=O)N/N=C/C3CCCCC3)nnn2-c2nonc2N)cc1,inactive: 9.97%,
CC(=O)C1=C(O)C(=O)N(C)C1c1ccccc1[N+](=O)[O-] (stereo not given),inactive: 8.27%,
CN(C)S(=O)(=O)c1ccc(Cl)c(C(=O)Nc2cccc3ncccc23)c1,inactive: -11.1%,
O=C(c1ccc(Cl)cc1)N1CCC(O)(CSc2ccc(Cl)cc2Cl)CC1,,"inconclusive [inhibitor, single point]"
COc1ccc(CCNC(=O)C/C(C)=N/NC(=O)COc2ccc(C)cc2Br)cc1OC,,"inconclusive [inhibitor, single point]"
O=C(NC1CCCCC1)N1CCN(S(=O)(=O)c2ccc(F)cc2)CC1,inactive: 19.1%,
O=C(COC(=O)c1ncc(Cl)c(Cl)c1Cl)NC1CCS(=O)(=O)C1 (stereo not given),inconclusive: -33% [inhibitor],
CCCC12CN(C(=O)c3ccc([N+](=O)[O-])cc3)CC(C)(CN(C(=O)c3ccc([N+](=O)[O-])cc3)C1)C2=O,,"inconclusive [inhibitor, single point]"
CCOC(=O)C1CCCN(C(=O)CN2C(=O)/C(=C/c3ccc(OC)cc3)Oc3ccccc32)C1 (stereo not given),,"inconclusive [inhibitor, partial curve]"
CN(CCOc1ccccc1)CC(=O)Nc1cccc(C#N)c1,inactive: 1.64%,
O=C(CSc1cc(Cl)ccc1Cl)NC1CCCc2ccccc21 (stereo not given),,"inconclusive [inhibitor, single point]"
